Results: the supplement of paper PMC10338343
± gives the standard deviation. This is a selection; strong and weak results do not stand in their true shares.

system: MIWI (PIWIL1) piRISC loaded with piRNA #1 (30 nt); experiment: pre-steady-state target cleavage rate (min^-1); MIWI and MILI are mouse PIWI proteins and EfPiwi is from a freshwater sponge; tags in brackets are library labels; higher = faster piRNA-guided slicing of the target; conditions: guide: piRNA #1 5'p-UGAGGUAGUAGGUUGUAUAGUAUCCAGAGG; auxiliary factor: 500 nM mouse GTSF1
Method in brief: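 A burst-and-steady-state fit was used to obtain the pre-steady-state cleavage rate. The input data were sequencing reads of uncleaved targets, normalised to depth and to weakly complementary targets, from a […] transcribed, DNA-blocked target RNA library mixed with 1 nM active affinity-purified piRISC holding one synthetic guide, with or without 500 nM GTSF1 partner protein, in HEPES–potassium acetate buffer at 33 °C for 0–8 or 0–960 min. Three trials were pooled and k3 was capped at 0.0001 min^-1.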
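Note: 1 nM active piRISC with 0.1 nM target library at 33 °C single turnover.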

Sequence	pre-steady-state target cleavage rate
CCUCUGGAUACUAUAAAACCUACUACCUCA	1.84 ± 0.11
GGACUGGAUACUUUACAACGUACUACCUCA	0.94 ± 0.09
GGAGACGAUACUAUUCAACCUACUACCUCA	1.54 ± 0.093
GGAGAGGUUACUUUACAACCUACUACCUCA	1.39 ± 0.072
GCUCUGCAUACUAUUCAACCUACUACCUCA	1.93 ± 0.12
GCUCGGAUACUAUACAACCUACUACCUCA	1.61 ± 0.12
GCUCAGGUUACUAUACAACCUACUACCUCA	2.01 ± 0.12
GGACUGGAUACUUUACAUCCUACUACCUCA	1.25 ± 0.11
GGAGUGCAUACUAUACAACCUAGUACCUCA	0.467 ± 0.038
GGAGUGGAUAGUAUACAACCUACUUCCUCA	0.147 ± 0.032
GGUCUCGAUACUAUACAACGUACUACCUCA	0.966 ± 0.056
GGAGACCUAUGUAUACAAGCUACAACCUCA	0.00496 ± 0.0015
GGAGUGGAUACUAUACAACCUAGUACCUGA	0.00324 ± 0.0024
GCUCUGGAUACUAUACAACGUACUACCACA	1.24 ± 0.093
GCUCUGGAUAUUAUACAACCUACUACCUCA	2.06 ± 0.11
GGAGUGGAUACUUUACAACCUACAACCUCA	0.0832 ± 0.013
GGAGAGGAUACUAUUCAACCUACUAGCUCA	0.246 ± 0.03
GGAGACCAUAGUAUACAACCUACUACCUGA	0.325 ± 0.037
CCUCUGGAUACAAUACAACCUAGUACCUCA	0.265 ± 0.046
GGAGACCUAACUAUAAAACCUACUACCUCA	0.344 ± 0.045

Sequence	pre-steady-state target cleavage rate
GGUCUGGAUACUAUACAACCUAGAUCCUCA	0.00874 ± 0.0021
GCUCUGGAUACUAUACAACCUACAUACCUCA	1.87 ± 0.16
GGAGACCUUAACUAUACAACCUACUACCUCA	1.21 ± 0.099
GGAGACCUAACUAUACAACCUACUACCGUCA	0.718 ± 0.053
GGACUGGUUUCUAUACAACCUACUACCUCA	1.32 ± 0.15
GGAGUCGAUACUAUAGAACCUACUACCUCA	0.295 ± 0.035
GGAGUGGAUACUAUACAACCACUACCUCA	0.00426 ± 0.0026
CCUCUGGAUACUAUACAACCUACAACCACA	0.852 ± 0.092
GGACUGCUAACUAUACAACCUACUACCUCA	1.05 ± 0.093
GGAGUGGAAAGUAUACAACCUACUACCUCA	0.678 ± 0.039
GGUCUGGAUAUAUACAACCUACUACCUCA	1.7 ± 0.12
GGAGACCUUAGUAUACAACCUACUACCUGA	0.195 ± 0.03
GGAGAGGUUACUAUACAACCUACUACCUGA	0.108 ± 0.019
CCUCUGGAUACUAUACUACGUACUACCUCA	0.587 ± 0.053
GGAGAGGAUACUAUACAACCUACGUACCUCA	0.372 ± 0.051
GGAGUGGAUAGUAUACAACCUUCUACCUCA	0.37 ± 0.023
GGAGACCUAUCUAUACAACCUACUACCAGA	0.306 ± 0.04
GGAGACGAUACAUAACAACCUACUACCUCA	0.33 ± 0.05
GCUCUGGAUACUAUACAACCUAGUACCUCA	0.452 ± 0.062
GGAGAGGAUACUAUACUACCUAGUACCUCA	0.0428 ± 0.012
